From the supplement of paper PMC12217912
This is one part of the list. Sequences were assembled here from the parent chain. Values near 0.05 are background.

B1: TEV protease; numbered along this chain (parent)
chain: MGESLFKGPRDYNPISSSICHLTNESDGHTTSLYGIGFGPFIITNKHLFRRNNGTLVVQSLHGVFKVKDTTTLQQHLVDGRDMIIIRMPKDFPPFPQKLKFREPQREERICLVTTNFQTKSMSSMVSDTSCTFPSGDGIFWKHWIQTKDGQCGSPLVSTRDGFIVGIHSASNFTNTNNYFTSVPKNFMELLTNQEAQQWVSGWRLNADSVLWGGHKVFMVKPEEPFQPVKEATQL

Variants of: B1
Experiment: raw area under fraction-flipped curve 0-4 h after induction (AUC4h, not background-subtracted), DNA-recorder readout of cleavage of the substrate (dimensionless); higher = more cleavage of the substrate by the protease variant
Conditions: temperature: 34 °C; time window: 0-4 h after rhamnose induction
Description: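 In vivo DNA recorder in E. coli TOP10(DE3) ΔrhaA at 34 °C. Each TEVp single-site mutant (parent TEVp 0) is paired with a single-site variant of the 7-mer TEVs (canonical ENLYFQ|S). The substrate sits between flexible linkers in a Bxb1-sfGFP-TEVs-SsrA fusion, so cleavage stabilises Bxb1 and speeds flipping of a recombination array, read by NGS. The value is the raw area under the fraction-flipped curve over 0-4 h after rhamnose induction (AUC4h), with ≥20 reads per time point. It is not background-subtracted; inactive controls average about 0.047.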
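Note: Bxb1 expression induced with 0.2% (w/v) L-rhamnose at OD600 near 0.5, cultures sampled hourly, flipped fraction per protease–substrate barcode pair counted by paired-end Illumina sequencing.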

Variant | area with substrate ENLCFQS | area with substrate ENLDFQS | area with substrate ENLFFQS | area with substrate ENLKFQS | area with substrate ENLNFQS | area with substrate ENLPFQS | area with substrate ENLSFQS | area with substrate ENLVFQS | area with substrate ENLEFQS | area with substrate ENLHFQS | area with substrate ENLLFQS | area with substrate ENLGFQS | area with substrate ENLMFQS | area with substrate ENLQFQS | area with substrate ENLRFQS | area with substrate ENLIFQS | area with substrate ENLTFQS | area with substrate ENLWFQS
G214P | 0.0517 | 0.0569 | 0.059 | 0.0563 | 0.0609 | 0.0334 | 0.0592 | 0.0418 | – | – | – | – | – | – | – | – | – | –
Q75I | 0.0661 | 0.0584 | 0.0729 | 0.0567 | – | 0.0687 | 0.0693 | – | 0.0532 | 0.0702 | 0.0604 | – | – | – | – | – | – | –
H47Q | 0.0668 | 0.0539 | 0.0649 | 0.0694 | 0.0643 | 0.0801 | – | 0.0738 | 0.053 | 0.0643 | – | 0.0875 | 0.0548 | 0.0622 | 0.058 | – | – | –
T174W | 0.07 | 0.0597 | 0.081 | 0.059 | 0.0664 | – | 0.0479 | 0.0762 | – | – | 0.0805 | 0.0613 | 0.0245 | – | 0.0646 | 0.0616 | 0.0401 | –
N172T | 0.0562 | 0.067 | 0.0597 | – | 0.0897 | 0.0558 | – | – | – | – | – | 0.0648 | 0.0604 | – | – | 0.0842 | – | 0.063
N172I | 0.0595 | – | – | 0.0647 | 0.0654 | 0.0458 | 0.0556 | – | 0.0437 | – | 0.0585 | – | – | – | 0.0665 | 0.0457 | – | –
F180M | 0.126 | 0.0544 | – | – | 0.0638 | – | 0.023 | – | – | 0.0607 | – | 0.0653 | – | 0.0496 | 0.0657 | – | – | 0.0685
D82P | 0.0732 | 0.0656 | – | 0.0558 | 0.0655 | – | 0.0561 | – | 0.0689 | 0.0526 | 0.0559 | – | – | – | 0.0598 | – | – | –
F140N | 0.0541 | 0.0613 | 0.0644 | 0.07 | 0.0674 | 0.0658 | 0.0506 | – | 0.0658 | 0.0616 | 0.0664 | 0.0395 | – | 0.0654 | 0.0771 | 0.0525 | – | 0.0643
C111P | 0.0415 | 0.058 | – | 0.0605 | 0.0533 | – | – | – | 0.0709 | 0.0812 | 0.042 | – | 0.0655 | – | – | – | – | –
C111G | 0.0702 | 0.0633 | 0.0925 | – | – | 0.0587 | – | – | – | – | – | 0.0483 | – | – | – | 0.0843 | – | –
N52E | 0.063 | 0.0521 | 0.0632 | 0.0845 | 0.0591 | 0.0662 | 0.0619 | 0.0828 | 0.0644 | 0.0505 | – | 0.0607 | – | – | 0.0544 | – | – | 0.0668
N52A | 0.0651 | 0.0657 | 0.0655 | 0.0651 | 0.05 | – | 0.0725 | – | 0.0473 | 0.068 | 0.05 | – | – | 0.0652 | 0.0671 | – | – | 0.0705
V67I | 0.0983 | – | – | 0.0761 | 0.0629 | – | – | – | – | 0.096 | – | – | – | – | 0.062 | 0.0982 | – | –
V78L | 0.0967 | – | 0.123 | 0.112 | – | 0.0694 | 0.0444 | – | 0.059 | 0.0706 | 0.0518 | – | – | – | 0.0852 | – | – | –
R51W | 0.0951 | 0.06 | 0.0973 | 0.0793 | 0.0664 | 0.0476 | 0.0809 | – | 0.0698 | 0.0416 | – | 0.0659 | – | – | – | – | – | –

Variant | area with substrate ENLCFQS | area with substrate ENLDFQS | area with substrate ENLFFQS | area with substrate ENLKFQS | area with substrate ENLNFQS | area with substrate ENLPFQS | area with substrate ENLSFQS | area with substrate ENLVFQS | area with substrate ENLEFQS | area with substrate ENLHFQS | area with substrate ENLLFQS | area with substrate ENLGFQS | area with substrate ENLMFQS | area with substrate ENLQFQS | area with substrate ENLRFQS | area with substrate ENLIFQS | area with substrate ENLTFQS | area with substrate ENLWFQS
K68P | 0.0736 | 0.0536 | 0.0875 | 0.0739 | 0.0688 | – | 0.0561 | – | 0.0585 | 0.0716 | 0.0786 | – | 0.053 | 0.0467 | – | 0.0474 | – | 0.0696
K68G | 0.081 | – | 0.0702 | – | – | 0.0477 | – | 0.0964 | – | 0.0753 | 0.058 | – | 0.0479 | – | 0.0713 | 0.0886 | – | –
K68D | 0.108 | 0.0637 | 0.0998 | 0.0638 | 0.0602 | 0.054 | 0.0459 | – | 0.0704 | 0.0823 | 0.0974 | – | – | 0.104 | – | 0.0908 | – | –
I84T | 0.0588 | 0.0796 | – | 0.0771 | 0.0477 | – | 0.0478 | – | 0.0488 | 0.0338 | – | – | – | – | 0.0905 | – | 0.0641 | –
Q59P | 0.0448 | 0.0332 | 0.0409 | 0.0387 | 0.042 | – | 0.109 | 0.0511 | – | 0.0468 | – | 0.0398 | – | – | 0.0427 | – | – | –
Q146S | 0.0759 | 0.0713 | – | – | – | – | – | 0.0724 | – | 0.0355 | – | 0.0704 | – | – | – | – | – | –
Q146H | 0.094 | 0.0635 | 0.0675 | 0.0786 | 0.0745 | 0.069 | 0.0703 | 0.0642 | 0.0636 | 0.0647 | – | 0.0595 | – | 0.0585 | 0.0731 | 0.0799 | 0.0647 | 0.0819
L61R | 0.0752 | 0.053 | 0.105 | 0.0952 | 0.0697 | 0.11 | 0.0601 | 0.0474 | 0.0737 | 0.0751 | 0.0864 | 0.0742 | – | 0.0927 | 0.07 | 0.0821 | – | –
N175I | 0.0499 | 0.0607 | 0.092 | – | 0.0648 | 0.0502 | – | – | 0.0625 | 0.0545 | 0.0603 | 0.0698 | – | – | 0.0838 | – | – | 0.0683
L211A | 0.0791 | 0.0626 | 0.0715 | 0.0758 | 0.0636 | – | – | – | – | – | – | – | – | 0.0785 | – | – | – | –
F92D | 0.0599 | 0.047 | 0.0491 | 0.0531 | 0.0496 | 0.0505 | 0.0599 | 0.0647 | 0.0598 | 0.0545 | – | – | 0.062 | 0.0517 | 0.0534 | – | – | 0.0507
T70P | 0.0831 | 0.074 | 0.0707 | 0.067 | 0.0554 | 0.0697 | 0.0577 | 0.0623 | 0.084 | – | 0.0524 | – | 0.0621 | 0.0641 | – | 0.0491 | – | 0.0427
V229A | 0.0863 | 0.0761 | 0.101 | 0.0739 | 0.0707 | 0.0466 | – | 0.0747 | 0.0607 | 0.0648 | – | 0.0722 | – | 0.0675 | 0.0812 | 0.0763 | – | 0.0532
I36K | 0.0411 | – | 0.0432 | 0.0284 | 0.0381 | 0.0318 | 0.0386 | 0.0385 | – | 0.0478 | – | 0.0509 | 0.0734 | – | – | – | – | –
G162K | 0.0818 | 0.0648 | 0.0626 | 0.0674 | – | 0.0614 | – | – | – | 0.0647 | – | 0.0892 | – | – | 0.0637 | 0.0927 | – | –
G162W | 0.0431 | 0.0613 | 0.116 | 0.0647 | 0.068 | – | 0.0595 | 0.0718 | – | 0.071 | – | – | – | 0.1 | – | 0.0767 | – | 0.0784
